# From patent US20240076343A1 (CEPHALON, published 2024)
# T1: high-affinity hIL-2 receptor (IL-2Rαβγ) (human, UniProt P01589 22-272; P14784 27-551; P31785 23-369)
# T1 sequence 1: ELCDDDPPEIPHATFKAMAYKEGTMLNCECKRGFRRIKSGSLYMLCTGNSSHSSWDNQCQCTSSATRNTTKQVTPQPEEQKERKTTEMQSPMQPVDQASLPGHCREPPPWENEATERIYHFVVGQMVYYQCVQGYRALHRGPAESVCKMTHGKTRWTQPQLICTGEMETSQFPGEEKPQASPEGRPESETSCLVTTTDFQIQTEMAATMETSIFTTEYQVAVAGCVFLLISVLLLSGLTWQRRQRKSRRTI
# T1 sequence 2: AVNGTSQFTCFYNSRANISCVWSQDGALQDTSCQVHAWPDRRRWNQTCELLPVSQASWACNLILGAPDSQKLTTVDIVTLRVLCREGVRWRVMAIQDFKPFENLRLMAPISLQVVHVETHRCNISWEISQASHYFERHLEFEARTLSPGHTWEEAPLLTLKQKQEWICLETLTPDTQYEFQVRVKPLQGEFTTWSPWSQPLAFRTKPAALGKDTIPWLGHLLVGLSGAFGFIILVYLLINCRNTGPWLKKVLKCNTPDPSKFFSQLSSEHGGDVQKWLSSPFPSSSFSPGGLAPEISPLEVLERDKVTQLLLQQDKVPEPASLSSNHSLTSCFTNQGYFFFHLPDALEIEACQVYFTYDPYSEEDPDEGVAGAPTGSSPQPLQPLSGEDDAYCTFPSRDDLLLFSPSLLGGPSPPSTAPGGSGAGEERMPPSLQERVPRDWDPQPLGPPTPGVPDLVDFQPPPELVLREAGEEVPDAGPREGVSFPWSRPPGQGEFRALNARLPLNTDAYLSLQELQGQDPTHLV
# T1 sequence 3: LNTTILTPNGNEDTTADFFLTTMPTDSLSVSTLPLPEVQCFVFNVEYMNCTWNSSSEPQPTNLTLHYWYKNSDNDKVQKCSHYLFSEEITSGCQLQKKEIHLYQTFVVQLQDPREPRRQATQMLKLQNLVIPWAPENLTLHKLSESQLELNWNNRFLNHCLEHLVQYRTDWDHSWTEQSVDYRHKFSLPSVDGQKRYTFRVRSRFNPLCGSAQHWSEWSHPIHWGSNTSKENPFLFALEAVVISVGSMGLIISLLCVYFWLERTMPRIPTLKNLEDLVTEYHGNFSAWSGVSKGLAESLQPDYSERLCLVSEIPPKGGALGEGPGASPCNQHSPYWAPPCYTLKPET
# T2: intermediate affinity hIL-2 receptor complex (IL-2Rβγ) (human, UniProt P14784 27-551; P31785 23-369)
# T2 sequence 1: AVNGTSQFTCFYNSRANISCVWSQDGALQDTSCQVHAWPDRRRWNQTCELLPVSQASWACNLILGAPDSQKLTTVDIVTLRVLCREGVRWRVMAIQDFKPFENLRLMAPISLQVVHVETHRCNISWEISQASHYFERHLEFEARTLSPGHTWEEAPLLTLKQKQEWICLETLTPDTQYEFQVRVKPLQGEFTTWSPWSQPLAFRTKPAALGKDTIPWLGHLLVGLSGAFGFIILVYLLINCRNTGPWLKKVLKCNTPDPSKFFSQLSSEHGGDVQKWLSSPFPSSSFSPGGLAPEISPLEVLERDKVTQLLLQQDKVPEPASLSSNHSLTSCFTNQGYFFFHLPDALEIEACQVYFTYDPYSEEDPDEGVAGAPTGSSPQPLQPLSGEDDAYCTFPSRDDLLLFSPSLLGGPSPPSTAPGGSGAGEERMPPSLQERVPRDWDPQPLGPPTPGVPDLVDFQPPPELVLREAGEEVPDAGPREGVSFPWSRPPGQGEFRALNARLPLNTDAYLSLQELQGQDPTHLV
# T2 sequence 2: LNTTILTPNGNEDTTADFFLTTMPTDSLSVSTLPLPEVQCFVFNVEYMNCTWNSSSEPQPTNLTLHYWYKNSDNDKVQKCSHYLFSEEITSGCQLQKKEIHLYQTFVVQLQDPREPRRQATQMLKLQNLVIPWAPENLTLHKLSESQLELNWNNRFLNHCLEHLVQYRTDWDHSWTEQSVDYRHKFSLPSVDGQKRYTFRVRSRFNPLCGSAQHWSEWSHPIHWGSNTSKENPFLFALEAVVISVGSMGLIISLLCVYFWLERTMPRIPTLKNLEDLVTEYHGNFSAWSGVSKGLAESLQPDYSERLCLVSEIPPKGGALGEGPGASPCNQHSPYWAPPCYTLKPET
# T3: intermediate affinity hIL-2 receptor complex (IL-2Rβγ) on TF1+IL-2Rβ cells (human, UniProt P14784 27-551; P31785 23-369)
# T3 sequence 1: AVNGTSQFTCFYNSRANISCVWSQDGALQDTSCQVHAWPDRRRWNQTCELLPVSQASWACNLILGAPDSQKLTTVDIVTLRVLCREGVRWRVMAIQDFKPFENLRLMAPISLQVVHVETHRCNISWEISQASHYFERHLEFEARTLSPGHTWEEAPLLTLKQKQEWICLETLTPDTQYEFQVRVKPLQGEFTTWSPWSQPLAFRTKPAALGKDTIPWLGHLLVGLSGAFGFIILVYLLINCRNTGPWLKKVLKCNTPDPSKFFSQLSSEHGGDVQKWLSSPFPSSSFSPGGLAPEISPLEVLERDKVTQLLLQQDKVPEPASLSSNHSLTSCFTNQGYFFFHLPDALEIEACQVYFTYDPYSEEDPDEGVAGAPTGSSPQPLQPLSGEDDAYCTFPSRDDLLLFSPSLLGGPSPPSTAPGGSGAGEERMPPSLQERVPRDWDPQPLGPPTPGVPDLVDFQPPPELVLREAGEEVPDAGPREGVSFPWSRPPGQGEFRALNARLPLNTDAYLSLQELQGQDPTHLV
# T3 sequence 2: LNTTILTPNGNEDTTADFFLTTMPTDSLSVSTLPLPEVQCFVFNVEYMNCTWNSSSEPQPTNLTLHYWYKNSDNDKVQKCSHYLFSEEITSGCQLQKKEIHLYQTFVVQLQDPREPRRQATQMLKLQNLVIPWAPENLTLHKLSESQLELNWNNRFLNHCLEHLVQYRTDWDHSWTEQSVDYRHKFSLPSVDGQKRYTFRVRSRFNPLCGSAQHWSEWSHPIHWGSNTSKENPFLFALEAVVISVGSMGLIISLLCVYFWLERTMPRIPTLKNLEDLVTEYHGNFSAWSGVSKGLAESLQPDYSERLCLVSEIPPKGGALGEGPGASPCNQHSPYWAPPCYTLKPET
# T4: high-affinity hIL-2 receptor (IL-2Rαβγ) on NK-92 cells (human, UniProt P01589 22-272; P14784 27-551; P31785 23-369)
# T4 sequence 1: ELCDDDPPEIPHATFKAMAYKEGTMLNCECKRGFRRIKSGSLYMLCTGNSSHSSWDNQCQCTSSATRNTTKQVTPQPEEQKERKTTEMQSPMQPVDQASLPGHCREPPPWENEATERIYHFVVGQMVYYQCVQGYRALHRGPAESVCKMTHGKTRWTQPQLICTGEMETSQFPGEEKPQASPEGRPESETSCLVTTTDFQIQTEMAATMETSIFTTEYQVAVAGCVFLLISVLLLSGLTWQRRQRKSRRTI
# T4 sequence 2: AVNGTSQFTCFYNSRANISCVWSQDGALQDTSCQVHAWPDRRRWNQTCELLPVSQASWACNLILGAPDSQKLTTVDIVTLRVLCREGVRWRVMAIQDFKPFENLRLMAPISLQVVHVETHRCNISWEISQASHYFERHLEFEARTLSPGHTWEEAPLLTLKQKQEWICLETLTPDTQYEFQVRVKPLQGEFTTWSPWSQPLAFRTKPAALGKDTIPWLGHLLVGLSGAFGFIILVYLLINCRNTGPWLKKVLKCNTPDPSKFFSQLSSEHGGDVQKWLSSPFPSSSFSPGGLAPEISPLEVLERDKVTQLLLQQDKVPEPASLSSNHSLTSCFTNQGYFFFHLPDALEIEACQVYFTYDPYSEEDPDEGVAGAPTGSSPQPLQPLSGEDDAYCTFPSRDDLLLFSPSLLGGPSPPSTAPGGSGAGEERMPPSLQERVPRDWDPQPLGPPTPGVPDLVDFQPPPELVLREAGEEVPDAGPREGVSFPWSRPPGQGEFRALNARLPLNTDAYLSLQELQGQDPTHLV
# T4 sequence 3: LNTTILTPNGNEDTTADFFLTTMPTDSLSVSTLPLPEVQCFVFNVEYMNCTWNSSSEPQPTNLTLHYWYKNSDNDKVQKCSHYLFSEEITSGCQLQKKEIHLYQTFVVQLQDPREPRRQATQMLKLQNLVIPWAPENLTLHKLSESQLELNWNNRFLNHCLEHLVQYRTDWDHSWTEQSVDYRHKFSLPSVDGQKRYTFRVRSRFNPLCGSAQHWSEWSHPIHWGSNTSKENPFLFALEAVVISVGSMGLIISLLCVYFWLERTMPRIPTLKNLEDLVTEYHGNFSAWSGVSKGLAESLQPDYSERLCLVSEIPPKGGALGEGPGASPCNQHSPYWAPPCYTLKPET
# How the values were obtained:
# Assay in all cases: cell-based or functional assay
# [1] = biological target: T1, high-affinity hIL-2 receptor (IL-2Rαβγ)
# [2] = biological target: T2, intermediate affinity hIL-2 receptor …
# [3] = biological target: T3, intermediate affinity hIL-2 receptor …
# [4] = biological target: T4, high-affinity hIL-2 receptor (IL-2Rαβγ) …
"Fold change from rhIL-2 (NK-92), pSTAT5 titration [1] [fold]","Agonistic Activity (TF1 + IL-2Rβ), pSTAT5 titration [2] [%]","Fold change from rhIL-2 (TF1 + IL-2Rβ), pSTAT5 titration [2] [fold]",Fold change from hIL-2 (TF1 + IL-2Rβ) [3] [fold],Fold change from hIL-2 (NK-92) [4] [fold],Binder
> 10000,50,~409,–,–,1H3-hIgG1-L6-hIL-2 (D20A/R38E) (other) heavy: EVQLVESGGGLVQPGRSLKLSCAVSGFTFSDYAMAWVRQAPKKGLEWVATISYDGSRTYYRDSVKGRFTISRDNAKITLYLQMDSLRSEDTATYYCARHGSGYFDYWGQGVMVTVSS[not shown - about 450 residues with a human IgG1 Fc and changes] light: DTVLTQSPALAVSPGERVTISCRASESVRTGVHWYQQKPGQQPKLLIYGASNLESGVPARFSGSGSGTDFTLTIDPVEADDTATYFCQQSWNDPFTFGSGTKLEIKRTVAAPSVFIFPPSDEQLKSGTASVVCLLNNFYPREAKVQWKVDNALQSGNSQESVTEQDSKDSTYSLSSTLTLSKADYEKHKVYACEVTHQGLSSPVTKSFNRGEC
–,–,–,2,18,1H3-hIgG1-L6-hIL-2 (T3A/D20A/R38E) (other) heavy: EVQLVESGGGLVQPGRSLKLSCAVSGFTFSDYAMAWVRQAPKKGLEWVATISYDGSRTYYRDSVKGRFTISRDNAKITLYLQMDSLRSEDTATYYCARHGSGYFDYWGQGVMVTVSS[not shown - human IgG1 constant region]SGGGGSAPASSSTKKTQLQLEHLLLALQMILNGINNYKNPKLTEMLTFKFYMPKKATELKHLQCLEEELKPLEEVLNLAQSKNFHLRPRDLISNINVIVLELKGSETTFMCEYADETATIVEFLNRWITFCQSIISTLT light: DTVLTQSPALAVSPGERVTISCRASESVRTGVHWYQQKPGQQPKLLIYGASNLESGVPARFSGSGSGTDFTLTIDPVEADDTATYFCQQSWNDPFTFGSGTKLEIKRTVAAPSVFIFPPSDEQLKSGTASVVCLLNNFYPREAKVQWKVDNALQSGNSQESVTEQDSKDSTYSLSSTLTLSKADYEKHKVYACEVTHQGLSSPVTKSFNRGEC
